The text below walks through data of PubChem BioAssay (NCI).

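A five-concentration, 48-hour dose response in 96-well plates underlies each endpoint, interpolated linearly between surrounding concentrations. GI50: concentration for 50% inhibition of growth. TGI is the concentration that stops growth completely.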 Peptide text beside a SMILES is read from it.

The assay relates to NCI-H322M lung. In words: NCI anticancer screen, dose series, 48 h.
Regarding `COc1ccc(S(=O)(=O)Nc2cc(Sc3cccc4cccnc34)c(O)c3ccccc23)cc1`, the GI50 was 3.41 µM and the TGI was 16.2 µM. `COc1cccc(N(CN2C(=O)CCC2OC)C(C)=O)c1` (configuration not stated) came in with a TGI of over 100 µM.

In turn, `C[C@H]1CCC2C(OC(=O)[C@@H]2CN(C)C)[C@]2(C)C(=O)C=CC12O` (some centres not stated) yielded a TGI of 39.7 µM. The compound `CSc1nc(-c2ccccc2)nc(=[N+]2CCOCC2)s1` registered a TGI of over 100 µM. For the compound `CC[C@@H](C(=O)[C@@H](C)[C@@H](O)[C@H](C)[C@@H]1O[C@@H]([C@@H](CC)C(=O)O)CC[C@@H]1C)[C@H]1O[C@]2(C=C[C@@H](O)[C@]3(CC[C@@](C)([C@H]4CC[C@](O)(CC)[C@H](C)O4)O3)O2)[C@H](C)C[C@@H]1C`, the GI50 was 1.92 µM and the TGI was determined as 17.9 µM. `CCOP(=O)(Cc1nc(C#N)c(N)o1)OCC`: the TGI is over 100 µM. With `O=[N+]([O-])c1ccc2nc(-c3ccc(Cl)cc3)[nH]c2c1`, the TGI worked out at 91.8 µM. Same read-out and setting: as for `C=C(Cl)CN1c2ccccc2C=Cc2ccccc21`, the figure is over 100 µM. On the same count and under the same terms, as for `COC(=O)C(=O)C(C#N)c1c(Cl)cccc1Cl` (configuration not stated), the figure is over 100 µM; as for `Oc1ccc(O)c(-n2cccn2)c1-n1cccn1`, over 100 µM; as for `N#CC(C#N)C(c1ccccc1)c1ccccc1`, over 100 µM. Still for that read-out and setting: to `C/C(=N\Nc1n[nH]c(=S)n1N)c1c(O)cc(C)oc1=O` belongs over 100 µM; to `O=c1[nH]c2ccc(C(F)(F)F)cc2nc1C(F)(F)F`, over 100 µM; to `NC(=O)c1nc(-c2ccc(Cl)c(Cl)c2)nc2ccccc12`, over 100 µM. For the compound `Cc1ccc(C(=O)N/N=C(\N=Nc2ccccc2C(=O)O)c2ccc(N(C)C)cc2)cc1`, the TGI is over 100 µM. Still for that read-out and setting: as for `CC(C)OP(=O)(OC(C)C)/C(C#N)=C/c1c[nH]c2ccccc12`, the figure is over 100 µM; as for `CCCCOc1ccc(S(=O)(=O)/N=C(\NO)Nc2ccc(Cl)cc2)cc1`, 29.6 µM; as for `O=NNc1c[nH]c(=O)[nH]c1=O`, over 100 µM. On the same count and under the same terms, to `CCOc1ccccc1NC(=O)C1=C(C)NC(C)=C(C(=O)Nc2ccccc2OCC)C1c1cccc([N+](=O)[O-])c1` belongs over 100 µM.

Take `O=S(=O)(O)c1cc(N=[N+]([O-])c2ccc(N=Nc3ccccc3)cc2S(=O)(=O)O)ccc1/C=C/c1ccc(N=[N+]([O-])c2ccc(N=Nc3ccccc3)cc2S(=O)(=O)O)cc1S(=O)(=O)O`: the TGI is over 100 µM.

`CC(CC(=O)Nc1ccc(NC(=O)CC(C)N=NC(N)=O)cc1)N=NC(N)=O` (configuration not stated): the TGI was over 100 µM. On the same count and under the same terms, as for `CCN1CCC(O)(/C=C/c2ccccc2)C(C(=O)/C=C/c2ccccc2)C1` (configuration not stated), the figure is 17.9 µM. In turn, `CN(C)Cc1cc(C(C)(C)C)cc(CN(C)C)c1O` gave a TGI of over 100 µM. On to `N#C/C(=C1\OC(N)=C(c2ccc(Cl)cc2)C1=O)c1ccc(Cl)cc1`, for which the TGI came to 42.7 µM. The compound `CCOC(=O)CCC(NC(=O)c1ccc(Nc2nc3ccccc3nc2C(=O)OCC)s1)C(=O)OCC` (configuration not stated) had a TGI of over 100 µM. The same measure, in the same setting: as for `O/N=C1\C(=C\c2ccc3c(c2)OCCO3)CCCC1C(NO)c1ccc2c(c1)OCCO2` (configuration not stated), the figure is 35.2 µM; as for `N#CNC1=NCCC(=O)N1CCc1c[nH]c2ccccc12`, over 100 µM. Consider `C[C@@H]1Cc2c(ccc3[nH]ncc23)[C@@H](c2ccc(NC3CN(CCCF)C3)cn2)N1CC(F)(F)F`, for which the GI50 was 35.9 µM and the TGI is over 100 µM. `CN1C/C(=C\c2ccc(C(=O)O)cc2)C(=O)/C(=C/c2ccc(C(=O)O)cc2)C1` came in with a TGI of over 100 µM. Consider `COc1ccc(C2C3=C(COC3=O)N(CCO)c3cc4c(cc32)CCC4)cc1` (configuration not stated), for which the GI50 is 11 µM and the TGI is over 50 µM. As for `O=C(CCc1cc(-c2ccc(F)cc2)n[nH]1)N(Cc1ccccc1)Cc1ccccc1`, the TGI is over 100 µM. `O=C1C(OC(=O)c2ccccc2)=C(c2ccc(O)cc2)C(=O)C(OC(=O)c2ccccc2)=C1c1ccc(O)cc1` had a TGI of over 100 µM. Same read-out and setting: as for `CSCC[C@H](NC(=O)[C@@H](N)CC(N)=O)C(=O)N[C@@H](Cc1c[nH]c2ccccc12)C(=O)N[C@@H](CCC(N)=O)C(=O)N[C@@H](CCC(=O)O)C(=O)N[C@H](C(=O)NCC(=O)N[C@@H](CCCCN)C(=O)N[C@H](C)C(=O)O)C(C)C` (HELM PEPTIDE1{N.M.W.Q.E.V.G.K.[dA]}$$$$V2.0), the figure is over 100 µM; as for `CC1=NN2CCC(=O)N=C2S1`, over 100 µM. On the same count and under the same terms, as for `N/C(CC(=O)NOC(=O)c1ccccc1)=N/OC(=O)c1ccccc1`, the figure is over 100 µM. On the same count and under the same terms, as for `CCCCCCCCCCOc1ccc(N=Nc2nnc(-c3ccc(OCCCCC)cc3)s2)cc1`, the figure is over 100 µM. For `C1CC[N-]CC1.CC(=N\O)/C(C)=N/O.CC(=N\O)/C(C)=N/O.C[CH-]C(C)O.[Co+2]`, the GI50 was 55.7 µM and the TGI was over 100 µM. The compound `O=C1CC2OCC=C3CN4CCC5(C(=O)O)C(N1)C2C3CC45` (configuration not stated) yielded a TGI of over 100 µM. `CC(=O)OC1=C(CC(C)(C)C)C(=O)c2ccccc2C1=O` returned a TGI of over 100 µM.

In turn, `N#Cc1c(N2CCCC2)nsc1Nc1ccccc1` displayed a TGI of over 100 µM. `O=c1onc(Nc2ccccc2)n1-c1ccccc1` gave a TGI of over 100 µM. Same read-out and setting: as for `CCCCCC/C(CC(=O)CCC(=O)NCCc1ccccc1)=N\Nc1ccc([N+](=O)[O-])cc1[N+](=O)[O-]`, the figure is over 100 µM. The same measure, in the same setting: to `Cc1cc(OCC(O)CO)ccc1Cl` (configuration not stated) belongs over 100 µM; to `COc1ccc(C2=Nc3c(nc(SC)[nH]c3=O)NC(c3ccccc3)C2)cc1` (configuration not stated), over 100 µM; to `COc1ccc(C2=NN(c3nsc4ccccc34)C(=O)CC2)cc1`, over 100 µM.

Regarding `CC1(C2CCC3(C)C(C2)C3Sc2ccccc2)OCCO1` (configuration not stated), the TGI was found to be 87.4 µM.

Compound `O=C(NNc1nc(-c2ccccc2)cs1)Nc1ccccc1` had a TGI of 64.7 µM. Same read-out and setting: as for `Cc1cc(S(=O)(=O)Nc2n[nH]c(Nc3ccccc3)n2)c(SSc2cc(Cl)c(C)cc2S(=O)(=O)Nc2n[nH]c(Nc3ccccc3)n2)cc1Cl`, the figure is over 100 µM; as for `O=C1C=CC(=O)c2c(O)c(N(CCCl)CCCl)c(Cl)c(O)c21`, over 10 µM.

For the compound `O=C1/C(=C/c2ccc(O)cc2)Oc2ccccc21`, the TGI was over 100 µM. Still for that read-out and setting: as for `CCOC(=O)C1CCCN1C(=O)c1ccccc1Cl` (configuration not stated), the figure is over 100 µM.

`O=C(N/N=C/c1ccc(N(CCCl)CCCl)cc1)c1ccc(C(=O)N/N=C/c2ccc(N(CCCl)CCCl)cc2)cc1`: the GI50 is 34 µM and the TGI was over 100 µM. `CSc1nc2ccc(C)cc2cc1/C=C1/C=C(c2ccccc2)NC1=O`: the GI50 is 5.94 µM and the TGI is over 100 µM. `COc1ccc(/C=C2\OC(=O)C(Cl)=C2c2ccc(OC)c(Cl)c2)cc1` displayed a TGI of over 100 µM.

`O=C(O)C1CSC2(CCCN(Cc3ccccc3)C2)N1` (configuration not stated) gave a TGI of over 100 µM. With `COC(=O)C(C)Oc1ccc(O)cc1` (configuration not stated), the TGI is over 100 µM.

For the compound `Cc1ccc(S(=O)(=O)N/N=C\c2c3ccccc3[n+](C)c3ccccc23)cc1`, the TGI is over 100 µM. As to `CNc1nc(-c2ccc3c(N)n[nH]c3c2)cc(N2C[C@@H](C(=O)NC3CCCCC3)CC[C@H]2C)n1`, the GI50 was 4.95 µM and the TGI was found to be 19.3 µM. With `CN(C)C(=S)/N=c1\ss/c(=N\S(=O)(=O)c2ccccc2)n1C`, the TGI was over 100 µM. In the case of `CNC(=O)c1cc(-c2ccc(F)cc2)cc(-c2ccc(S(=O)(=O)N3CCCC3)cc2)c1N`, the GI50 was over 25 µM and the TGI is over 25 µM. Compound `Cc1oc2nc(N(C)C)n3cnnc3c2c1C` had a TGI of over 100 µM. On the same count and under the same terms, as for `CC1/C(=N/O)CC(c2ccccc2)N(N=O)C1c1ccccc1` (configuration not stated), the figure is over 100 µM; as for `COc1cc(-c2nc(SC)nc3c2CCc2ccccc2-3)cc(OC)c1OC`, over 100 µM.

With `C=Cc1cc(OC)c2c(c1)c(=O)oc1c2cc(OC)c2c(O)ccc(C3OC(C(C)O)C(O)C3O)c21` (configuration not stated), the GI50 is 0.0147 µM and the TGI was 0.0687 µM.

Compound `NC1=Nc2ccccc2Sc2ccccc21` had a TGI of over 100 µM.

For the compound `O=C(/C=C/c1ccc(Cl)cc1Cl)c1ccc(Cl)cc1Cl`, the GI50 was 39.6 µM and the TGI is over 89.8 µM. On the same counts, the results for `N=C(N)c1ccc(-c2ccc(-c3ccc(Cl)cc3Cl)s2)nc1` are 1.74 µM and 3.12 µM. As to `CC1=NN(c2nc(N)nc(-c3cc4ccccc4oc3=N)n2)C(C)(C)C1`, the TGI was 42.7 µM. The same measure, in the same setting: to `CC(C)(NC(=O)C(C)(C)NC(=O)OCc1ccccc1)C(=O)O` (HELM PEPTIDE1{[O=C(OCc1ccccc1)[*:2]].[Aib].[Aib]}$$$$V2.0) belongs over 100 µM. On to `CC(=O)[O][Hg][c]1s[c]([Hg][O]C(C)=O)[c]([Hg][O]C(C)=O)[c]1[Hg][O]C(C)=O`, for which the GI50 was 13.3 µM and the TGI worked out at 27.4 µM. The compound `CNC(=O)C1OC(n2cnc3c(NCc4cccc(I)c4)nc(Cl)nc32)C(O)C1O` (configuration not stated) came in with a TGI of 30.6 µM. The same measure, in the same setting: as for `Cc1cc(OCc2nnc3n2N=C(c2cc(F)c(Cl)cc2Cl)/C(=C/c2ccc(-c4ccc(Cl)cc4)o2)S3)ccc1Cl`, the figure is over 50 µM.

`CCSc1nc(N)c2cnn(CC)c2n1`: the GI50 was 5.45 µM and the TGI is 56 µM. With `O=C(O)c1cccc(S(=O)(=O)NN2C(=O)CSC2c2c(O)ccc3ccccc23)c1` (configuration not stated), the TGI turned out to be 76.5 µM. On to `COC(=O)Nc1nc2ccc(C(=O)c3cccs3)cc2[nH]1`, for which the GI50 was over 100 µM and the TGI is over 100 µM. In the case of `CC1CN=C(c2ccc(CN3CCC(CCCC4CCN(Cc5ccc(C6=NCC(C)N6)cc5)CC4)CC3)cc2)N1` (configuration not stated), the TGI was determined as 89 µM. Same read-out and setting: as for `Cc1ccc(C)c2c1n1c(=O)n(C)c(=O)n21`, the figure is over 100 µM; as for `CC1=C2C3OC(=O)C(C)C3C(O)C[C@@]2(C)C(=O)CC1` (some centres not stated), over 100 µM; as for `COc1ccc(/C=C(/c2ccc(OC)cc2)c2c(Cl)cc(Cl)c(/C(=C\c3ccc(OC)cc3)c3ccc(OC)cc3)c2N=Nc2ccccc2)cc1`, over 100 µM. For the compound `c1ccc(-c2cc3n4c(-c5ccccc5)nn(-c5ccccc5)c4cnc-3n2)cc1`, the GI50 was over 50 µM and the TGI was over 50 µM. `OC(CCl)CN1CC[N+]2(CC1)CC[N+]1(CCN(CC(O)CCl)CC1)CC2` (configuration not stated) had a TGI of over 50 µM.
